The structures appear in SMILES notation. Hit rate of the full screen: of about 310,000 compounds, about 2,200 (0.71%) showed an effect of 50% or more. The effect is printed as a negative number. The list shows a part of the results.

The target of the assay is human ether-à-go-go-related gene (hERG) potassium channel (human, UniProt Q12809). The experiment in a line: primary screen, population patch clamp on CHO cells stably expressing hERG.
Sequence of human ether-à-go-go-related gene (hERG) potassium channel (Q12809 whole entry, looked up): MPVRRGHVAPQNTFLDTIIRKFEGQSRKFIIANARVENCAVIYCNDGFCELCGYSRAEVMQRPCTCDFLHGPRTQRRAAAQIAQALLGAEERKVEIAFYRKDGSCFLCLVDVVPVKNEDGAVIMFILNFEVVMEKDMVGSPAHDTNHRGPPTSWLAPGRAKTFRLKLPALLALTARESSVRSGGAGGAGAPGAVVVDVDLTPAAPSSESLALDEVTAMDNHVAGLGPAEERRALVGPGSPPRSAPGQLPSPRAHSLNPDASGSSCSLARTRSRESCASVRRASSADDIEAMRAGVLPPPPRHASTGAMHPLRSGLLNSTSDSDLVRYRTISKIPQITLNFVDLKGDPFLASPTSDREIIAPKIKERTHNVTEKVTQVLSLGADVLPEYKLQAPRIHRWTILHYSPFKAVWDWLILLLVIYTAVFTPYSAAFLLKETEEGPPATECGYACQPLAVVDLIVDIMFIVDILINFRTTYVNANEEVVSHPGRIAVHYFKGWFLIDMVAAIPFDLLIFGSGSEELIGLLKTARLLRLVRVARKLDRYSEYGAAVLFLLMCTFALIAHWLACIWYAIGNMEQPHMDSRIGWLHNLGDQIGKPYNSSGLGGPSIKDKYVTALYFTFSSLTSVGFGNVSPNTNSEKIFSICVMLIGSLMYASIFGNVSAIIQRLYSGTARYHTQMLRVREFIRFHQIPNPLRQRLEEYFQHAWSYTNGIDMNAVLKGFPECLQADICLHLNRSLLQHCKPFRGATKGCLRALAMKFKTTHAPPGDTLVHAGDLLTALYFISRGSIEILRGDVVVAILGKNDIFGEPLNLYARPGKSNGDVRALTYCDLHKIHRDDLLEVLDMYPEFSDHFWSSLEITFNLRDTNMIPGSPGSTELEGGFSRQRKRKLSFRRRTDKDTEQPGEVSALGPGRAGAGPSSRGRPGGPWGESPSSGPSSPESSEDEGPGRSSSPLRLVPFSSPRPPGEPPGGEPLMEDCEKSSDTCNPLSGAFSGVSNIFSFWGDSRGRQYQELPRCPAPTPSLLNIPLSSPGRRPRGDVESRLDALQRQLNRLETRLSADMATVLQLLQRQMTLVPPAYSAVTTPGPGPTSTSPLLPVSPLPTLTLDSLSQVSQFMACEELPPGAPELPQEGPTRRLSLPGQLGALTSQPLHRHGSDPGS
In the case of `O=C(c1ccc(Cl)cc1Cl)N1CCC(c2nc3c(nnn3Cc3ccco3)c(=O)[nH]2)CC1`, the “hERG current change (%, negative = inhibition) at 1uM” value is -11.2%.
With `O=S(=O)(c1ccccc1F)N1CCN(C(=S)NCc2ccccc2)CC1` the figure was 14.3%; with `Cc1cc(C)nc(N/N=C/c2cc3c(cc2[N+](=O)[O-])OCO3)n1`, 11.2%; with `CC(C)N(C(=O)CSc1nc2ccccc2c(=O)[nH]1)C(C)C`, 9.74%.
On to `COc1ccc(/C(N)=N/OC(=O)c2ccc3c(c2)OCO3)cc1`, for which the “hERG current change (%, negative = inhibition) at 1uM” value came out at 14.1%.
With `CCc1cccc(NC(=O)C2CCCC2)c1` the figure was 20.7%.
For the molecule `O=C(Cn1cnc2c(nnn2-c2ccccc2)c1=O)N1CCC(Cc2ccccc2)CC1`, the “hERG current change (%, negative = inhibition) at 1uM” value is on record as -0.531%.
With `NC(=O)C1CCN(CC(O)CSc2ccccc2)CC1` (stereo not drawn) the figure was 4.32%; with `COC(=O)C1=C(c2ccc(C(C)=O)cc2)C[C@@H]2CC[C@H]1N2C(=O)NCc1ccc2c(c1)OCO2`, 4.09%.
With `CCCn1c(N)c(N2CCCCC2)c(=O)n(CC(=O)Nc2ccccc2C)c1=O` the figure was 16%; with `Cn1c(SCC(=O)Nc2ccc3c(c2)OCCO3)nnc1C1CC1`, 7.4%.
For `O=C(CN1CCN(CC(=O)c2ccc(F)cc2)CC1)Nc1ccccc1Cl`, the “hERG current change (%, negative = inhibition) at 1uM” value is on record as -48.2%.
With `Cc1ccc(CNC(=O)C2CCC(CNc3c(N4CCC(C)CC4)c(=O)c3=O)CC2)cc1` (stereo not drawn) the figure was 8.21%; with `CN1C(C(=O)NCc2cccc(C(F)(F)F)c2)CC2Cn3c(nc4ccccc43)C21` (stereo not drawn), -6.41%; with `O=C(COc1ccccc1)N/N=C/c1cc2c(cc1[N+](=O)[O-])OCO2`, -1.02%.
With `O=C(NNC(=O)c1cc(Br)c(Br)s1)c1csc(N2CCOCC2)n1` the figure was 8.08%.
On to `COc1ccc(N2CCN(CCNC(=O)c3ccc4c(c3)[nH]c(=S)n3c5ccccc5nc43)CC2)cc1`, for which the “hERG current change (%, negative = inhibition) at 1uM” value is listed as 5.57%.
With `CCN(CC)C(=O)COc1ccc(N(C)S(=O)(=O)c2ccc(NC(C)=O)cc2)cc1` the figure was -1.39%; with `CSc1nc(N2CCOCC2)nc2ccc(C)cc12`, 9.17%; with `CCOCCc1nnc(NC(=O)CS(=O)(=O)c2ccc(C)cc2)s1`, 6.45%.
With `Cc1ccc(C2=NN3C(=O)c4ccccc4C3C2)cc1` (stereo not drawn) the figure was -2.74%.
With `COC(=O)c1cc(C)sc1NC(=O)C1CC=CCC1C(=O)O` (stereo not drawn) the figure was -4.16%; with `O=C(O)/C=C\C(=O)NCc1ccccc1`, 12.2%.
For `CCOC(=O)c1c(C(=O)OCC)c(C)n(CCc2ccccc2)c1C`, the “hERG current change (%, negative = inhibition) at 1uM” value was found to be 8.67%.
